# Values joined by “and” are separate entries in the source; they are usually repeats but may differ in a detail not shown here. Equal values may be shown once. Inconclusive means that the source gave no clear call. Such entries were picked first, then a sample of the others. Potencies beside an inconclusive call are fits to weak or partial responses and may not hold up. Active and inactive are the calls of the source. Calls follow the shape of the dose curve; as a rule, active = well fitted curve in the direction sought with a large enough effect in the repeat runs; inconclusive = weak or mixed curves; inactive = no such curve, though single readings can be large; an effect the other way counts as inactive or inconclusive.
# How the values were obtained:
# [1] = qHTS RealTime-Glo MT Cell Viability Assay in HEK293 cells - 24 hour (AID 1224886); conditions: RealTime-Glo luminescence; series mostly up to 76.8 µM; also: nearly all actives have a fitted effect of over 50% in size
# Outline: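 Reads taken at 0, 8, 16, 24, 32 and 40 h from the same wells. HEK293 cells (600/well) carried RealTime-Glo reagents from seeding, with compound added after a 5 h settle at 37 C.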
# [2] = qHTS RealTime-Glo MT Cell Viability Assay in HEK293 cells - 8 hour (AID 1224887); conditions: RealTime-Glo luminescence; series mostly up to 76.8 µM; also: nearly all actives have a fitted effect of over 50% in size
# Outline: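 600 HEK293 cells per well, dispensed already mixed with RealTime-Glo MT reagents. Compound dosing came 5 h later. The same wells were read for luminescence at 0, 8, 16, 24, 32 and 40 h of exposure at 37 C.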
# [3] = A CellTox Green Cytotoxicity Assay to monitor cytotoxicity in HEK293 cells - 16 hour (AID 1224888); conditions: CellTox Green fluorescence; series mostly up to 76.8 µM; also: nearly all actives have a fitted effect of over 35% in size
# Outline: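 Dead-cell fluorescence measured kinetically: asymmetric cyanine dye, HEK293, 600 cells/well, 5 h settle, 23 nL cpd/DMSO, 37 C, reads 0–40 h every 8 h.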
# [4] = qHTS assay to identify small molecule antagonists of the estrogen receptor alpha (ER-alpha) signaling pathway using the BG1 cell line in the presence of 0.1 nM 17-beta-estradiol - cell viability counter screen (AID 1259241); conditions: VM7Luc4E2 (BG1) viability, CellTiter-Fluor protease, 22 h, 0.1 nM estradiol agonist added; series mostly up to 92.4 µM; also: nearly all actives have a fitted effect of over 40% in size
# Outline: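 VM7Luc4E2 cells (endogenous ER-alpha, 4×ERE-luciferase), hormone-starved 5 days in charcoal-stripped FBS, were treated with compounds plus 0.1 nM 17beta-estradiol for 22 hr at 37C; viability read in same wells as CellTiter-Fluor live-cell protease fluorescence.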
# [5] = qHTS RealTime-Glo MT Cell Viability Assay in HepG2 cells - 0 hour (AID 1224889); conditions: RealTime-Glo luminescence; series mostly up to 76.8 µM; also: nearly all actives have a fitted effect of over 50% in size
# Outline: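 HepG2 suspension premixed with RealTime-Glo reagents is plated at 600 cells per well and left 5 h at 37 C/5% CO2. Compounds in DMSO then go in, and bioluminescence reflecting viable cell number is recorded over 40 h.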
# [6] = A CellTox Green Cytotoxicity Assay to monitor cytotoxicity in HepG2 cells - 8 hour (AID 1224890); conditions: CellTox Green fluorescence; series mostly up to 76.8 µM; also: nearly all actives have a fitted effect of over 45% in size
# Outline: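 First, HepG2 cells (600/well) mixed with reagent were plated; second, after 5 h at 37 C they received compounds via pintool; third, fluorescence was measured at 0 h through 40 h at 8 h intervals.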
# Potency is read from the fitted curve at half-maximal effect; tags tell the direction and shape of the fitted curve.
smiles,measurement,setting,value
COC(=O)Nc1nc2ccc(C(=O)c3ccccc3)cc2[nH]1,Potency,[1],"inconclusive: 0.756 µM [cytotoxic, full curve]"
same,Potency,[2],"inconclusive: 23.9 µM [cytotoxic, partial curve, poor fit]"
NNC(=O)c1cccc(C(=O)NN)c1,Potency,[2],inactive
CCCCNc1c(C(=O)OCC)c(C)nc2c1cnn2CC,Potency,[2],active: 13.4 µM
N#[N+]c1ccc2c(S(=O)(=O)[O-])cccc2c1O,Potency,[2],"inconclusive: 69.2 µM [cytotoxic, partial curve, poor fit]"
CC1=C(C=O)C(C)(C)CCC1,Potency,[1],"inconclusive: 21.9 µM [rising, single point]"
same,Potency,[2],"inconclusive: 21.9 µM [rising, single point]"
same,Potency,[3],"inconclusive: 21.9 µM [activator, single point]"
Cc1ccc(S(=O)(=O)O)cc1,Potency,[1],inactive
same,Potency,[4],inactive
Clc1cc(Cl)nc(Cl)n1,Potency,[2],inactive
Cc1ccc(C(=O)c2cc(O)c(O)c([N+](=O)[O-])c2)cc1,Potency,[1],"inconclusive: 54.9 µM [cytotoxic, single point]"
same,Potency,[3],"inconclusive: 10.7 µM [activator, single point]"
same,Potency,[5],"inconclusive: 54.9 µM [cytotoxic, single point]"
same,Potency,[4],"inconclusive: 26.6 µM [cytotoxic, partial curve]"
CCN(CC)CCOc1ccc(C(O)(Cc2ccc(Cl)cc2)c2ccc(C)cc2)cc1 (configuration not stated),Potency,[1],active: 19 µM
same,Potency,[2],active: 21.3 µM
same,Potency,[3],"inconclusive: 26.8 µM [activator, single point]"
same,Potency,[5],"inconclusive: 15.1 µM [cytotoxic, partial curve]"
same,Potency,[6],"inconclusive: 26.8 µM [activator, single point]"
O=C(OCc1ccccc1)c1ccc(O)cc1,Potency,[1],"inconclusive: 61.6 µM [cytotoxic, single point]"
same,Potency,[2],"inconclusive: 61.6 µM [cytotoxic, single point]"
CC(C)(COC(=O)c1ccccc1)COC(=O)c1ccccc1,Potency,[1],"inconclusive: 54.9 µM [cytotoxic, single point]"
same,Potency,[2],"inconclusive: 61.6 µM [cytotoxic, single point]"
CC(C)(C)C1=CC(=O)C=C(C(C)(C)C)C1=O,Potency,[1],inactive
same,Potency,[5],inactive
O=C(O)CCc1nc(-c2ccccc2)c(-c2ccccc2)o1,Potency,[2],inactive
CN1CCCC(n2nc(Cc3ccc(Cl)cc3)c3ccccc3c2=O)CC1 (configuration not stated),Potency,[1],active: 8.49 µM
same,Potency,[2],active: 7.56 µM
same,Potency,[6],"inconclusive: 26.8 µM [activator, single point]"
same,Potency,[4],"inconclusive: 18.8 µM [cytotoxic, partial curve]"
CN(c1nccc(=O)[nH]1)C1CCN(c2nc3ccccc3n2Cc2ccc(F)cc2)CC1,Potency,[1],"inconclusive: 23.9 µM [cytotoxic, single point]"
same,Potency,[2],"inconclusive: 21.3 µM [cytotoxic, partial curve]"
CCN(CCC#N)c1ccccc1,Potency,[2],inactive
CN1C(=O)OC(C)(C)C1=O,Potency,[1],inactive
same,Potency,[4],inactive
C=COCC(C)C,Potency,[1],"inconclusive: 60.1 µM [cytotoxic, single point]"
same,Potency,[2],"inconclusive: 60.1 µM [cytotoxic, single point]"
CCCCC(CC)COP(=O)(O)O (configuration not stated),Potency,[1],"inconclusive: 62.7 µM [cytotoxic, single point]"
same,Potency,[3],"inconclusive: 62.7 µM [activator, single point]"
CCN[C@H]1CN(CCCOC)S(=O)(=O)c2sc(S(N)(=O)=O)cc21,Potency,[2],inactive
CCOC(=O)c1ccccc1C(=C1C=C(Br)C(=O)C(Br)=C1)c1cc(Br)c(O)c(Br)c1,Potency,[1],"inconclusive: 46.1 µM [cytotoxic, partial curve, poor fit]"
same,Potency,[5],"inconclusive: 41.1 µM [cytotoxic, partial curve]"
O=C1CC2(CCCC2)CC(=O)N1CCCCN1CCN(c2ncccn2)CC1,Potency,[2],"inconclusive: 43.6 µM [cytotoxic, partial curve]"
CC(=O)c1cnccn1,Potency,[1],inactive
same,Potency,[3],"inconclusive: 14.5 µM [activator, full curve, poor fit]"
same,Potency,[6],"inconclusive: 20.4 µM [activator, partial curve, poor fit]"
C=CC(=O)OCCCCCCCC(C)C,Potency,[1],"inconclusive: 30.9 µM [rising, partial curve]"
same,Potency,[5],inactive
CCOC(=O)C1=C(C)NC(C)=C(C(=O)OC)C1c1cccc(Cl)c1Cl (configuration not stated),Potency,[1],"inconclusive: 26.8 µM [cytotoxic, single point]"
same,Potency,[5],active: 6.74 µM
COc1cccc(O)c1O,Potency,[1],"inconclusive: 18.1 µM [rising, partial curve]"
same,Potency,[2],"inconclusive: 40.4 µM [cytotoxic, partial curve]"
same,Potency,[4],"inconclusive: 71.2 µM [cytotoxic, single point]"
O=C(O)CCNC(=O)c1ccccc1,Potency,[1],inactive
same,Potency,[2],inactive
same,Potency,[3],"inconclusive: 0.0952 µM [activator, single point]"
CCc1nc(N)nc(N)c1-c1ccc(Cl)cc1,Potency,[1],"inconclusive: 3.52 µM [cytotoxic, full curve] and inconclusive: 12.3 µM [cytotoxic, partial curve]"
same,Potency,[2],"inconclusive: 31.4 µM [cytotoxic, partial curve] and inconclusive: 54.9 µM [cytotoxic, single point]"
same,Potency,[4],"inconclusive: 68.6 µM [cytotoxic, partial curve, poor fit]"
CC/C=C\C/C=C\C/C=C\CCCCCCCC(=O)O,Potency,[1],"inconclusive: 34.7 µM [rising, partial curve]"
same,Potency,[4],"inconclusive: 43.3 µM [cytotoxic, partial curve, poor fit]"
CC[C@H]1CN2CCc3cc(OC)c(OC)cc3[C@@H]2C[C@@H]1C[C@H]1NCCc2cc(OC)c(OC)cc21,Potency,[4],"inconclusive: 6.88 µM [cytotoxic, partial curve] and inconclusive: 1.06 µM [cytotoxic, full curve]"
CCSCC,Potency,[4],"inconclusive: 72.5 µM [cytotoxic, single point]"
C/C=C/C=C/C(=O)O,Potency,[5],"inconclusive: 1.38 µM [cytotoxic, partial curve]"
CCN(Cc1cccc(S(=O)(=O)O)c1)c1ccc(C(=C2C=CC(=[N+](CC)Cc3cccc(S(=O)(=O)O)c3)C=C2)c2ccccc2S(=O)(=O)[O-])cc1,Potency,[4],active: 19.4 µM
CC(C)Cc1ccc(C(C)C(=O)O)cc1 (configuration not stated),Potency,[4],inactive
CC(C)(C)C(=O)OCOC(=O)C1N2C(=O)CC2S(=O)(=O)C1(C)C (configuration not stated),Potency,[6],"inconclusive: 2.68 µM [activator, single point]"
Cc1c(F)c(N2CCNC(C)C2)cc2c1c(=O)c(C(=O)O)cn2C1CC1 (configuration not stated),Potency,[6],inactive
CC/C=C1/OC(=O)c2ccccc21,Potency,[4],inactive
CN(C)CCOC(c1ccccc1)c1ccccc1 (tested in a mixture with another compound),Potency,[4],"inconclusive: 77.5 µM [cytotoxic, single point]"
C#CCN(C)Cc1ccccc1,Potency,[4],inactive
O=C(O)O,Potency,[4],"inconclusive: 4.19 µM [cytotoxic, partial curve, poor fit]"
CCOC(C)=O,Potency,[5],"inconclusive: 49.2 µM [cytotoxic, partial curve]"
CNc1ccc(O)cc1,Potency,[5],"inconclusive: 43.6 µM [cytotoxic, partial curve, poor fit]"
same,Potency,[4],active: 21.6 µM
CC(=O)Nc1cc(S(=O)(=O)O)cc2cc(S(=O)(=O)O)c(N=Nc3ccccc3)c(O)c12,Potency,[4],active: 19.3 µM
O=c1[nH]cnc2nc[nH]c12,Potency,[6],inactive
CC1CN(c2ccccc2)NC1=O (configuration not stated),Potency,[4],inactive
O=[N+]([O-])c1ccc(Nc2ccc(Nc3ccccc3)c(S(=O)(=O)O)c2)c([N+](=O)[O-])c1,Potency,[5],"inconclusive: 61.6 µM [cytotoxic, partial curve, poor fit]"
same,Potency,[4],"inconclusive: 68.6 µM [cytotoxic, single point]"
CCC1(CO)COCOC1,Potency,[5],inactive
CCCCC1=NC2(CCCC2)C(=O)N1Cc1ccc(-c2ccccc2-c2nn[nH]n2)cc1,Potency,[4],"inconclusive: 21.1 µM [cytotoxic, partial curve, poor fit]"
CC1(C)[C@@H](O[C@H]2O[C@H](C(=O)O)[C@@H](O)[C@H](O)[C@H]2O[C@@H]2O[C@H](C(=O)O)[C@@H](O)[C@H](O)[C@H]2O)CC[C@]2(C)[C@H]3C(=O)C=C4[C@@H]5C[C@@](C)(C(=O)O)CC[C@]5(C)CC[C@@]4(C)[C@]3(C)CC[C@@H]12,Potency,[5],"inconclusive: 40.9 µM [cytotoxic, single point] and inconclusive: 31.6 µM [cytotoxic, partial curve]"
O=S(=O)(O)CCCN1CCOCC1,Potency,[6],inactive
CN(C)CCC=C1c2ccccc2C=Cc2ccccc21,Potency,[5],"inconclusive: 19 µM [rising, partial curve]"
CNCCC(Oc1ccc(C(F)(F)F)cc1)c1ccccc1 (configuration not stated),Potency,[4],"inconclusive: 67.7 µM [cytotoxic, single point]"
CCCCC(CC)COC(=O)COc1cc(Cl)c(Cl)cc1Cl (configuration not stated),Potency,[4],inactive
CC1(C)O[C@@H]2C[C@H]3[C@@H]4C[C@H](F)C5=CC(=O)C=C[C@]5(C)[C@@]4(F)[C@@H](O)C[C@]3(C)[C@]2(C(=O)CO)O1,Potency,[5],active: 3.89 µM and active: 9.52 µM
CC(=O)OC(C)c1ccccc1 (configuration not stated),Potency,[4],inactive
O=C(Nc1ccc(Cl)c(Cl)c1)c1cc(Cl)cc(Cl)c1O,Potency,[5],"inconclusive: 49 µM [cytotoxic, partial curve, poor fit]"
same,Potency,[4],"inconclusive: 9.69 µM [cytotoxic, single point]"

# — PubChem BioAssay (Tox21)
